# Measured values from US20150064234A1, “4-AMINOPYRIDINE AS A THERAPEUTIC AGENT FOR SPINAL MUSCULAR ATROPHY” (THE TRUSTEES OF COLUMBIA UNIVERSITY IN THE CITY OF NEW YORK, priority 2012, published 2015).
# Experiments:
# [1] = tested on: smn^x7/smn^x7 mutant larvae; test: NMJ electrophysiology (eEPSP), smn mutant larvae; conditions: smn mutants, 2 mM 4-AP; compared with 4-AP treated controls
# Experimental: (§1) Drosophila stocks. smnX7 (Chang et al., 2008) is small deletion that removes the entire smn coding region from 93 bp upstream of the transcription start site up to the last 44 bp of the 3′ UTR without disrupting other loci. Under conventional culture conditions, the number of homozygous smnX7 mutants that survive to the third instar is few consistent with previous reports (Chang et al., 2008), however if stocks were cultured at low density, an increase the numbers that survived to this stage could reliably be identified. […] Data was only analyzed from recordings where the resting membrane potential was less than −55 mV. […] Data were low-pass filtered at 1 kHz, digitized, and recorded to disk using a Digidata 1322A interface. Both eEPSPs and mEPSPs amplitudes were measured using the peak detection feature of MiniAnalysis program (Synaptosoft, Inc.). […] The amplitude and the frequency of mEPSPs were calculated from continuous recordings in the absence of stimulation (50-100 s). Quantal content was calculated for each individual recording by calculating (eEPSP amplitude/mEPSP amplitude) (Davis et al., 1998) after correction for nonlinear summation errors (Martin, 1955). […]
# [2] = tested on: smn^x7/smn^x7 mutant larvae; test: Larval locomotion assay, smn mutant larvae; conditions: smn mutants, 2 mM 4-AP; compared with 4-AP treated controls
# Experimental: as §1
structure (smiles),measurement,setting,value
"Nc1ccncc1 [4-AP, 4-aminopyridine]",effect on NMJ neurotransmitter release / eEPSP amplitude,[1],not significantly different to that of 4-AP treated controls
same,effect on locomotion,[2],not significantly different to controls treated with 4-AP
